Data: paper PMC4336329 (PLoS ONE, 2015)
Among all 310,000 compounds or so, about 14,000 (4.5%) showed an effect of 50% or more. The effect is printed as a negative number. This is one part of the list.

Biological target: human ether-à-go-go-related gene (hERG) potassium channel (human, UniProt Q12809)
Experiment: primary screen, population patch clamp on CHO cells stably expressing hERG
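Also: peak tail current of the secondary pulse compared with the same well before compound.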

Chain of human ether-à-go-go-related gene (hERG) potassium channel (Q12809 whole entry, looked up): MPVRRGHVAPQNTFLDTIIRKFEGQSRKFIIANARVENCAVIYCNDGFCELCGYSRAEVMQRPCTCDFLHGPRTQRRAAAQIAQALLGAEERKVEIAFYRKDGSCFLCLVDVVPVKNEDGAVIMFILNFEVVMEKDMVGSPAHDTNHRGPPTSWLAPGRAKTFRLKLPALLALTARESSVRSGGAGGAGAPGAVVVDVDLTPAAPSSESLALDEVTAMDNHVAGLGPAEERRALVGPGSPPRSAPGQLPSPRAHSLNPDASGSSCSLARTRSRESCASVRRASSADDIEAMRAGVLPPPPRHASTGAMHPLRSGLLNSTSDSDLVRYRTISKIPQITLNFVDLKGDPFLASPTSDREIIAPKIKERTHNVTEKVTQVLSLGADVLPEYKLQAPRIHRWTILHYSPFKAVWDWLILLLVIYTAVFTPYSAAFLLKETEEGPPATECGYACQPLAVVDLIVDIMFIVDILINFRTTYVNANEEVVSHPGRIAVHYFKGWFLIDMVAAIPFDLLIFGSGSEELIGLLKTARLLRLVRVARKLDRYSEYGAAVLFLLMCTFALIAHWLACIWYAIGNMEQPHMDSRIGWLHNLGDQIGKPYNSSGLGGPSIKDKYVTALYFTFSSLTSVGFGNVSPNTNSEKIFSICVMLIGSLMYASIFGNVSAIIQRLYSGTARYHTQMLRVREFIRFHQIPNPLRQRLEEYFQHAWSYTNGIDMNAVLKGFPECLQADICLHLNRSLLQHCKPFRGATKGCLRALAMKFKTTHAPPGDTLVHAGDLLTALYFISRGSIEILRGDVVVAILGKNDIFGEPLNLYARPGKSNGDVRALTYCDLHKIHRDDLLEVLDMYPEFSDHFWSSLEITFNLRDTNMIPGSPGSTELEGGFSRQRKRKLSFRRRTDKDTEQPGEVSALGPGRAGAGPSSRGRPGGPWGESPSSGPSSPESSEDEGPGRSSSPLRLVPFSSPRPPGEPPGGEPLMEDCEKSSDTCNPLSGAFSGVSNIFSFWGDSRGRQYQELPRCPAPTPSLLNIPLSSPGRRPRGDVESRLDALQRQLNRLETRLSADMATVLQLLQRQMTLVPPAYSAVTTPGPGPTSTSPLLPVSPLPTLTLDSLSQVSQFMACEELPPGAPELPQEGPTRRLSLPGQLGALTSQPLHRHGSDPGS

In order of falling “hERG current change (%, negative = inhibition) at 10uM” value:
1. Cc1ccc(/C(O)=C2\C(=O)C(=O)N(CC(C)O)C2c2cccc(F)c2)cc1 (stereo not drawn)  28.4%
2. O=C(N/N=C/c1ccc(O)cc1)c1[nH]c2ccc(Br)cc2c1-c1ccccc1  25.8%
3. O=C1C=C(c2ccc3c(c2)OCO3)C[C@@H](c2ccc(F)cc2)C1  23.8%
4. Cc1ccc(-c2noc(Cn3nc(C(=O)O)c4ccccc4c3=O)n2)cc1  23.3%
5. CNC(=O)c1ccc(NC(=O)CCc2c(C)noc2C)cc1  20.5%
6. Cc1nc2sccn2c(=O)c1S(=O)(=O)Nc1ccc(N2CCN(C(=O)C(C)C)CC2)cc1  18.3%
7. Cn1c(CO)cnc1SCc1ccc(F)cc1  18.2%
8. Cc1nc(SCCC(C)C)c([N+](=O)[O-])[nH]1  17.6%
9. Cc1ccc2c(c1)C1(OCCCO1)C(=O)N2  15.6%
10. CCOC(=O)C1Sc2ccccc2NC1=O (stereo not drawn)  14.8%
11. CC(C)Oc1ccc(C(=O)Nc2nc3ccccc3[nH]2)cc1  14.8%
12. O=C(NC(=O)c1ccccc1)Nc1ccc(Cl)cn1  14.4%
13. CN(C)S(=O)(=O)Oc1ccsc1C(=O)Nc1ccc(Cl)c(Cl)c1  12.5%
14. COc1ccc(N=c2oc3ccccc3cc2C(=O)Nc2ccccn2)cc1OC  12.4%
15. Cn1cccc1C(=O)NC(=O)COC(=O)c1cc(S(=O)(=O)N2CCCCC2)ccc1Cl  12.1%
16. CCOc1ccc(S(=O)(=O)N2CCN(c3ccccn3)CC2)cc1  11.1%
17. O=C(O)c1cccc(CSc2nnc(-c3ccco3)o2)c1  10.1%
18. Cc1ccc(NC(=O)N2CCCC(c3ccccc3)C2)cc1 (stereo not drawn)  9.76%
19. Cc1ccc(C(=O)Nc2nc(=O)[nH]s2)cc1  9.01%
20. CCn1nc(C(=O)OCC(=O)NC(C)C)c2ccccc2c1=O  8.88%
21. COc1ccc(C(C)(C)C)cc1NC(=O)CCN1C(=O)C2CCCCC2C1=O (stereo not drawn)  8.08%
22. COc1cc(-c2noc(C)c2-c2ccc3[nH]ccc3c2)cc(OC)c1OC  8.02%
23. CC(C)[C@H](NS(=O)(=O)c1ccc(Cl)cc1)C(=O)OCC(=O)NCCN1C(=O)CSC1=O  7.5%
24. O=C(NCc1ccccc1)C(c1ccccc1F)N(CC1CCCO1)C(=O)c1ccccn1 (stereo not drawn)  7.17%
25. CCOc1ccccc1N1CCN(C(=O)c2c(CC)noc2C)CC1  6.82%
26. CC1CCC(NC(=O)c2ccc(CNc3c(NC4CCCCC4)c(=O)c3=O)cc2)CC1 (stereo not drawn)  6.77%
27. O=C(Nc1ccccc1)C1=C[C@@H](c2ccc(C(F)(F)F)cc2)C[C@@H](OCc2ccc(CO)cc2)O1  6.5%
28. Cc1ccc(-c2csnn2)cc1  6.13%
29. COc1cccc(C(=O)OCn2nnc3ccccc3c2=O)c1OC  5.98%
30. O=C(NCCN1CCNC1=O)C1CCC(=O)N(CCc2ccccc2)C1 (stereo not drawn)  4.81%
31. Fc1cccc(-c2nn[nH]n2)c1  4.64%
32. COc1cccc(NC(=O)CSc2nnc(-c3ccoc3C)n2C)c1  4.35%
33. O=C(NC1CCCc2ccccc21)C1CCN(S(=O)(=O)c2cccc3nsnc23)CC1 (stereo not drawn)  4.33%
34. COc1cc(OC)c(S(=O)(=O)N2CCN(C(=O)c3ccccc3F)CC2)cc1NC(C)=O  4.09%
35. O=C(CC1C(=O)NCCN1Cc1ccc(F)c(F)c1)NCCn1cccn1 (stereo not drawn)  4.04%
36. COc1ccc(OC)c(NC(=O)c2ccc(CN3CCc4ccccc4C3)cc2)c1  3.78%
37. CN(C(=O)CS(=O)(=O)c1cn(CC(=O)N2CCCCC2)c2ccccc12)c1ccccc1  3.46%
38. Cc1cccc(C)c1NC(=O)C/C(N)=N/O  3.42%
39. Cc1noc(C)c1COC(=O)Cn1c(C)nc2ccccc21  2.93%
40. Cc1sc(NC(=O)CSc2nc(N)n(CC(=O)c3ccccc3)n2)c(C#N)c1C  2.65%
41. Cc1ccc(NC(=O)COc2cccc3ccc(C)nc23)c(Br)c1  2.27%
42. CCc1ccc(C(=O)NNC(=O)CN2C(=O)NC3(CCCC3)C2=O)cc1  2%
43. NC(=O)CC(NC(=O)Cc1ccc(Br)cc1)c1ccc(NCCc2ccc(F)cc2)c([N+](=O)[O-])c1 (stereo not drawn)  1.23%
44. CN1CC=C2C(C#N)=C(N)C(C#N)(C#N)[C@H](c3cccs3)[C@H]2C1  0.684%
45. CCOC(=O)c1ccc(NC(=O)c2nc[nH]c2C(=O)NCCCCCNC(=O)OC(C)(C)C)cc1  0.213%
46. COc1ccc2c(CCNC(=O)CN3C(=O)c4ccccc4C3=O)c[nH]c2c1  0.19%
47. CC(=O)c1sc2nsc(SCCN3CCOCC3)c2c1N  -0.389%
48. COC(=O)c1ccc(NC(=O)c2ccc(N(C)S(C)(=O)=O)cc2)cc1  -1.19%
49. Cc1nc(NC(=O)CSc2nccn2C)sc1C(=O)N(C)C  -1.55%
50. Cc1ccc(NC2CCCN(C(=O)c3c(C)noc3C)C2)cc1C (stereo not drawn)  -1.58%
51. Cc1cccc(OCC(=O)Nc2ccccc2C(F)(F)F)c1  -2.17%
52. CCn1ccc(C(=O)Nc2ccccc2Cl)n1  -2.33%
53. Cc1ccccc1Cn1cc(NC(=O)c2noc(C(C)C)c2[N+](=O)[O-])cn1  -3.3%
54. CC(C)Cc1nc2oc3c(Cl)ncnc3c2c2c1CCCC2  -4.06%
55. CC(=O)Nc1ccc(C(=O)c2ccccc2)cc1  -4.78%
56. O=C(O)CCCC(=O)Nc1ccccc1C(=O)O  -5.62%
57. C/C(=N\NC(=O)c1ccn(C)n1)c1ccc(NC(=O)C2CCC2)cc1  -6.39%
58. Cc1cc(=O)c(C(=O)Nc2cccc(N3CCCC3=O)c2)nn1-c1ccccc1Cl  -6.49%
59. COc1cc(CNc2ncn[nH]2)ccc1OCc1cccc(C)c1  -9.34%
60. O=C(CSc1ccc(-c2ccco2)nn1)c1ccccc1  -9.74%
61. NC(=O)C1=C[C@@H](C2CCCCC2)C[C@@H](OCc2ccc(CO)cc2)O1  -10.4%
62. O=C(N/N=C/c1cccc2cccnc12)[C@H]1C[C@@H]1c1ccccc1  -11.2%
63. CCOC(=O)N1CCN(C(=O)CSc2nnc(-c3ccccc3OC)o2)CC1  -12.9%
64. COc1ccc(O)c(/C=N/NC(=O)CCC(=O)Nc2cccc(C)c2)c1  -14.9%
65. O=C(CNC(=O)c1nc[nH]c1C(=O)N1CCN(c2ccccc2)CC1)OCc1ccccc1  -16.5%
66. c1coc(-c2nnc(SCc3nc4ccccc4[nH]3)o2)c1  -16.7%
67. Cc1ccccc1NS(=O)(=O)c1ccc(C(=O)NCC(c2ccco2)N(C)C)cc1 (stereo not drawn)  -17%
68. COc1ccnc(CN(C)C(=O)C2CCC(=O)N(Cc3cccc(C(F)(F)F)c3)C2)c1 (stereo not drawn)  -18.6%
69. CCOc1ccccc1N(CC(=O)Nc1ccc(S(=O)(=O)N2CCCC2)cc1)S(C)(=O)=O  -19.6%
70. CC(C)CC(=O)Nc1cccc(NC(=O)c2ccccc2Cl)c1  -22.7%
71. Cc1oc(-c2ccccc2F)nc1CS(=O)CC(=O)NCc1ccc(Cl)cc1 (stereo not drawn)  -25.6%
72. Cl.NCCCCCc1nnc(SCc2ccc(Cl)cc2Cl)o1  -26.1%
73. O=C(/C=C/c1ccccc1)N(Cc1ccc(Cl)cc1)C1CCS(=O)(=O)C1 (stereo not drawn)  -30.6%
74. COc1ccc(N(C(=O)c2ccc(S(=O)(=O)N3CCCC3)cc2)C2C=CS(=O)(=O)C2)cc1 (stereo not drawn)  -31.9%
75. CCOC(=O)c1sc2nc(SCC(=O)N(CC)CC)n(CCCN3CCCC3=O)c(=O)c2c1C  -32.4%
76. CO/N=C/NC(=O)C1=NOC(CNc2ncc(C(F)(F)F)cc2Cl)C1 (stereo not drawn)  -36.1%
77. CC(=O)c1ccc(N2CCN(C(=O)COc3ccccc3F)CC2)c(F)c1  -39.7%
78. COc1ccc(CCNC(=O)C/C(C)=N/NC(=O)COc2ccc(C)cc2Br)cc1OC  -44.2%
79. Nc1[nH]n2c(=O)c3c(nc2c1N=Nc1ccccc1)CCCC3  -54.3%
80. Cl.O[Si](CCCN1CCCCC1)(c1ccc(F)cc1)C1CCCCC1 (stereo not drawn)  -54.3%
81. CCCCN(CCCC)Cc1cc2ccccc2c2c1COC2  -54.6%
82. COc1cccc(CNC(=O)C2CCN(S(=O)(=O)c3ccc(-n4cnnn4)cc3)CC2)c1  -57.3%
83. O=C(NCC1(N2CCCCC2)CCCCC1)c1cccc(S(=O)(=O)Nc2ccc(F)cc2)c1  -64%
84. N#Cc1ccc(N2CCN(C(=O)c3cccc(F)c3)CC2)c(F)c1  -66.8%
85. CCOc1cc(-c2nc3cc(C)ccn3c2NCC2CCCO2)ccc1O (stereo not drawn)  -72.2%
86. O=C(NCCN1CCOCC1)c1cnn2c(-c3ccccc3)cc(-c3ccccc3)nc12  -72.5%
87. COc1cc(CN2CCC(Oc3cc(C(=O)NC4CC4)ccc3OC)CC2)cc(OC)c1  -72.8%
